From the supplement of paper PMC11417369
Some of the results follow.

System: PF3D7_0420300 AP2 domain 1 (GST-tagged)
Experiment: gcPBM binding intensity (ln(normalized median fluorescence intensity)); higher = stronger DNA binding
In short: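 The binding buffer was 1× PBS containing 1% milk, 0.2 mg/ml BSA, 0.5% salmon testes DNA and 0.03% Triton X-100. In it, GST-tagged P. falciparum DNA-binding domains expressed in E. coli were applied for 1 h to an Agilent 4 × 180k array of primer-extended double-stranded 36-bp intergenic genomic probes plus negative controls. Binding intensity, read with Alexa488 anti-GST antibody and a 488 nm scan, is the highest Masliner-normalised natural-log median intensity across replicate spots of either probe orientation.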

| Sequence | gcPBM binding intensity (ln) |
| --- | --- |
| ATAATGTCATAATTATATCCTTTGGCATAAAATAAA [XGTACX_negctrl_site574] | 8.87 |
| TATAATATTATATAATGTACGCATTTATTATTTAAA [XGTACX_site8326] | 9.03 |
| GAATGTAAATATTAAAGTACACAGAATATATCTTCA [XGTACX_site8149] | 9.25 |
| AAATAAAATCATGAATGTACACAAAAATTATTGCAA [XGTACX_site5691] | 9.35 |
| TTTGAAGGAAGGGGGGGAGGGGCCATAACAAAGGAA [GTGCAC_negctrl_site408] | 10.4 |
| ATACCATATAATTATGTGAGAAAATATAATATTCAT [CACACA_negctrl_site310] | 9.25 |
| ATTTTCTTAAATAAATGTACATGGCATTAAAAGTAA [XGTACX_site5119] | 9.06 |
| TATTTGTATATTCATTCCTGTATTCCCTTTTTTGTA [CACACA_negctrl_site1236] | 9.65 |
| AAAAAAAAAAAAAATACACACAAATAATAAAAATAA [CACACA_site1431] | 9.85 |
| TGTACGTTTTTTAACACACACACAAAAAAAAAAAAA [CACACA_site6006] | 9.5 |
| ATATATATATATGTATGTACATAATATTTTTTTTAT [XGTACX_site5551] | 9.19 |
| AGTAAATATATTATATGTACGTATCATAAAATATAT [XGTACX_site1567] | 9.23 |
| TTAATATTAAAATATAAACACACAAAATTCAATTAT [CACACA_site9262] | 9.47 |
| ATTTTTTTTTTTTTTTTTAATTTATGTTGTTATTTT [CACACA_negctrl_site944] | 9.6 |
| GTAAAATAAATAATATAAATAAAATGAAATGAAACA [TGCATGCA_negctrl_site519] | 9.61 |
| AAGTTTAAAGGAATTACACAAACAAGCAAATATATA [CACACA_negctrl_site857] | 9.51 |
| TAATATATTAAAAGAAGTACATTTCTGATTTAATAG [XGTACX_site6403] | 9.04 |
| ATATATATATATATAGTGCAAATAAAAAATAGACAA [GTGCAC_site9796] | 9.68 |
| GAACCGTTTTTATGTAGTACATATGTATATATATAT [XGTACX_site1577] | 9.54 |

| Sequence | gcPBM binding intensity (ln) |
| --- | --- |
| ATTATATAATAATAAAGTACTAATATTTTTAAAAGA [XGTACX_site235] | 8.97 |
| TATTACAAAAATGTGTTATTATATAAACGTATAGAG [XGTACX_negctrl_site529] | 9.23 |
| AATATAATATAATGCACACATAAAAAAAAAAAAAAA [CACACA_site304] | 9.34 |
| AAATTACAAATAAAATGTACTCATGTTTTTATTATA [XGTACX_site7223] | 9.02 |
| TTTTTAATTTTTTTCACACATATATAAATACAAATA [CACACA_site5530] | 9.05 |
| TTTTTTAAATATATATGTACATATATCTATATATAT [XGTACX_site3461] | 9.11 |
| TTTATAATTTATAGGCGGACAGGAAAATTTTATAAA [XGTACX_site6955] | 9.26 |
| GCAAGGTCCACACTGGTGCATTAAAAATAAAATATA [GTGCAC_site9956] | 8.96 |
| TGAACAGGTCATAATTTACACACTATATATTTTATT [CACACA_site8123] | 9.57 |
| TTTTTCTTTTTTTGTTGTACATTTTGTAATATTTAC [XGTACX_site4102] | 9.47 |
| TACAGGAATATTTTTACACACTAAAAGTTATAAACT [CACACA_site6876] | 9.3 |
| AAGAAAAATTCTTCACGTACAAATAATTATATATAT [XGTACX_site7217] | 9.17 |
| TATAATATATATGTATGTACGTATGTATGATTTTGT [XGTACX_site1164] | 9.34 |
| TTATTTATATATTGCCCACACACATGTGATTATTTA [CACACA_site1715] | 9.75 |
| AATATTTTTTGTTTTACACACATATATAAATATATA [CACACA_site3602] | 9.64 |
| GAATTATATACTTATTGTACAAAAAAAAAAAAAAAA [XGTACX_site3193] | 8.68 |
| ATAAACATGTATATATTAAAAAAAAAAAAAAAAAAT [CACACA_negctrl_site92] | 9.33 |
| ACGATGTTCATCACTACACACACAAAGAAATATATA [CACACA_site8859] | 9.81 |
| AACCAAAATTTTTGTCGTACAAAAGAGCAAATGTAG [XGTACX_site6472] | 9.38 |

| Sequence | gcPBM binding intensity (ln) |
| --- | --- |
| TTTTACTATGATATTTATATATCTATATATGTATAT [XGTACX_negctrl_site499] | 9.23 |
| AAAAATAAAAATGAGTGTACTTTAAGCCCTACACTT [XGTACX_site828] | 9.19 |
| TATAATATTATAGTTTGTACGAAAATAATATATTTA [XGTACX_site8673] | 8.91 |
| AATGTAAAACGAAATGCACACTATGGAAAATATAAA [CACACA_site4559] | 9.65 |
| TAATAATAATTAAAATGAGATAAATAAATATATATA [TGCATGCA_negctrl_site322] | 9.17 |
| TTATATATTTATAAATGTACGTATAAGAATTTAATT [XGTACX_site8541] | 9.19 |
| CTATTAATGTACTCTACACACATATAAGAGGACATT [CACACA_site471] | 9.46 |
| TAAGTTTGTGCAAGTGGTACATATATATAAATTTAT [XGTACX_site5944] | 9.29 |
| TGATTATAGACACGCGCACACACAACAAAAAAAAAA [CACACA_site9179] | 9.75 |
| TTAGCAACTATTACTACACACATTTGTATTTAATTT [CACACA_site4961] | 9.63 |
| TTTACATAAACTGGTAGTACATAATATGGCTTAAAA [XGTACX_site5002] | 9.23 |
| TGGATTTTTTGATTTTTGTTTTTCTTCTTTCCCCCC [CACACA_negctrl_site1471] | 9.39 |
| ACAGTATAAAAATAAGCACACACACTAATATATATT [CACACA_site8212] | 10.1 |
| TAAAATATATTTTTCTGTACACAAAAATATATTAAA [XGTACX_site2813] | 8.9 |
| TATATATTAATATATGCATGTTAATATATTATGAAA [TGCATGCA_site61] | 9 |
| TAAATATAGGGTAATAGTACATAATTATATTCTTTT [XGTACX_site3883] | 9.21 |
| TTTTTTTTTTTTTAATGTACCCATGGGCACATAGGT [XGTACX_site486] | 8.67 |
| TATATTTATATATTAGTGCACTTTTTGTTAATTTTT | 9.31 |
